The shares of active, inactive and inconclusive entries below differ from those in the screen. Potencies beside an inconclusive call are fits to weak or partial responses and may not hold up. Calls of active or inactive are those of the source. Calls come from the whole dose curve; as a rule, active = well fitted inhibition curve with a large enough effect; inconclusive = small, poorly fitted or top-dose-only effect; inactive = flat fitted curve, though single readings scatter.
experiment: P-glycoprotein substrates identified in KB-8-5-11 adenocarcinoma cell line, qHTS therapeutic library screen (AID 1346987); conditions: KB-8-5-11 (P-gp overexpressing) viability, CellTiter-Glo, 72 h; series mostly up to 44.5 µM; note: nearly all actives have a fitted effect of over 65% in size
Method in brief: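 Steps: plate 500 KB-8-5-11 cells/well in DMEM + 10% FCS (colchicine removed); pin compounds in dose-response; incubate 72 h, 37 degree C, 5% CO2; add CellTiter-Glo, 5 min; read luminescence.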
Potency is the fitted concentration of half-maximal effect; tags give direction and shape of the fitted curve.

SMILES | Potency
Cc1nnc2n1-c1ccc(Cl)cc1C(c1ccccc1Cl)=NC2 | inconclusive: 14.6 µM [inhibitor, single point]
C[C@]12CC[C@H](OC3OC(CO)C(O)C(O)C3OC3OC(CO)C(O)C(O)C3O)C[C@@H]1CC[C@@H]1C2CC[C@]2(C)[C@@H](C3=CC(=O)OC3)CC[C@]12O (stereo partly specified) | inconclusive: 9.68 µM [inhibitor, single point]
CCCCCn1cc(C(=O)Cc2ccccc2OC)c2ccccc21 | inconclusive: 6.51 µM [inhibitor, partial curve]
CC(=O)O[C@@H]1[C@@H](O)[C@H]2O[C@@H]3C=C(C)[C@@H](O)C[C@]3(CO)[C@]1(C)[C@]21CO1 | active: 0.904 µM
CCCN(CCC)CCc1ccc(OC)c(OCCc2ccccc2)c1 | inactive
O=C(N[C@H]1CN2CCC1CC2)c1cc2cccc(Cl)c2s1 | inconclusive: 32.6 µM [inhibitor, partial curve, poor fit]
Clc1ccc(CSC(Cn2ccnc2)c2ccc(Cl)cc2Cl)cc1 (stereo unspecified) | inconclusive: 11.1 µM [inhibitor, partial curve, poor fit]
CC[C@@H]1C[C@H]2CC[C@H](O2)[C@H](C)C(=O)O[C@@H](C)C[C@@H]2CC[C@@H](O2)[C@@H](C)C(=O)O[C@H](C)C[C@H]2CC[C@H](O2)[C@H](C)C(=O)O[C@@H](C)C[C@@H]2CC[C@@H](O2)[C@@H](C)C(=O)O1 | active: 1.22 µM
CCCN(CCC)C(=O)Cc1c(-c2ccc(Cl)cc2)nc2ccc(Cl)cn12 | inconclusive: 6.51 µM [inhibitor, partial curve]
COC(=O)C1(C)CCC(O)C2(C)c3cc(O)c(C(C)C)cc3C(O)C(OC(C)=O)C12 (stereo unspecified) | inactive
O=C1NCN(c2ccccc2)C12CCN(CCCOc1ccc(F)cc1)CC2 | inconclusive: 7.31 µM [inhibitor, partial curve]
CCCCCc1cc(O)c2c(c1)OC(C)(C)c1ccc(C)cc1-2 | inconclusive: 29.1 µM [inhibitor, single point]
C[C@H]1[C@@H]2Cc3ccc(O)cc3[C@@]1(C)CCN2C | inactive
COC1CC(O[C@H]2CC[C@]3(C)C4CC[C@]5(C)[C@@H](C6=CC(=O)OC6)[C@@H](OC(C)=O)C[C@]5(O)C4CC[C@@H]3C2)OC(C)C1O (stereo partly specified) | active: 0.563 µM
CCN(CCO)CCn1c(Cc2ccccc2)nc2c1c(=O)n(C)c(=O)n2C | inconclusive: 29.1 µM [inhibitor, single point]
CN1C(=S)CN=C(c2ccccc2)c2cc(Cl)ccc21 | inconclusive: 16.4 µM [inhibitor, single point]
CC[C@@H](C)[C@H]1C(=O)O[C@H](C(C)C)C(=O)N(C)[C@@H]([C@@H](C)CC)C(=O)O[C@H](C(C)C)C(=O)N(C)[C@@H]([C@H](C)CC)C(=O)O[C@H](C(C)C)C(=O)N1C | inconclusive: 8.62 µM [inhibitor, single point]
C[C@@H]1O[C@@H](O[C@H]2CC[C@@]3(C)C(CC[C@@H]4C3CC[C@]3(C)[C@@H](C5=CC(=O)OC5)CC[C@]43O)C2)[C@H](O)[C@H](O)[C@H]1O (stereo partly specified) | active: 0.709 µM
C[C@@]1(CO)[C@H](O)CC[C@@]2(C)[C@H]1CC[C@H]1C[C@@H]3C[C@@]12CC[C@]3(O)CO | inconclusive: 8.05 µM [inhibitor, partial curve]
CC(C)[C@H]1OC(=O)[C@H](Cc2ccccc2)N(C)C(=O)[C@@H](C(C)C)OC(=O)[C@H](Cc2ccccc2)N(C)C(=O)[C@@H](C(C)C)OC(=O)[C@H](Cc2ccccc2)N(C)C1=O | active: 4.85 µM
CCC(OC(C)=O)C(CC(C)NC)(c1ccccc1)c1ccccc1 (stereo unspecified) | active: 20 µM
C=CCN1CC[C@]23CCCC[C@H]2[C@H]1Cc1ccc(O)cc13 | inconclusive: 14.6 µM [inhibitor, single point]
CCOC(=O)Nc1ccc(NCc2c(C)cc(C)cc2C)cc1N | inconclusive: 20.6 µM [inhibitor, single point]
Cc1sc2c(c1C)C(c1ccc(Cl)cc1)=N[C@@H](CC(N)=O)c1nnc(C)n1-2 | inconclusive: 2.59 µM [inhibitor, partial curve]
CCCCCn1cc(C(=O)C2C(C)(C)C2(C)C)c2ccccc21 | inactive
O=C(NC(=O)c1c(F)cccc1F)Nc1cc(Cl)c(OC(F)(F)C(F)C(F)(F)F)cc1Cl (stereo unspecified) | inconclusive: 8.2 µM [inhibitor, partial curve, poor fit]
